# Reference: the supplement of paper PMC8728848
# The other results are listed elsewhere or left out.
# Experiments:
# Assay in all cases: glycan array binding signal (z-score within array); higher = stronger binding
# Details in all cases: glycan notation: IUPAC condensed, linker removed
# [1] = molecular target: Gal(b1-4)GlcNAc(b1-2)[Gal(b1-4)GlcNAc(b1-6)]Man(a1-6)[GlcNAc(b1-4)][Gal(b1-4)GlcNAc(b1-2)Man(a1-3)]Man(b1-4)GlcNAc(b1-4)GlcNAc
# Outline: (§1)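 Glycan array data came from 3228 arrays in the Consortium for Functional Glycomics database, and only arrays with an available protein sequence were kept. Glycan names were put into IUPAC-condensed notation, and columns mapping to the same glycan were averaged. The binding signal is a within-array Z-score, averaged across arrays of one protein sequence run at different concentrations or buffers and across linkers. A negative Z-score can be read as non-binding.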
# [2] = molecular target: Gal(b1-4)GlcNAc(b1-2)[Gal(b1-4)GlcNAc(b1-6)]Man(a1-6)[GlcNAc(b1-4)][Gal(b1-4)GlcNAc(b1-2)[Gal(b1-4)GlcNAc(b1-4)]Man(a1-3)]Man(b1-4)GlcNAc(b1-4)[Fuc(a1-6)]GlcNAc
# Outline: as §1
# [3] = molecular target: Gal(b1-4)GlcNAc(b1-3)Gal(b1-3)GalNAc
# Outline: as §1
# [4] = molecular target: Gal(b1-4)GlcNAc(b1-3)Gal(b1-3)GlcNAc
# Outline: as §1
# [5] = molecular target: Gal(b1-4)GlcNAc(b1-3)Gal(b1-4)Glc
# Outline: as §1
# [6] = molecular target: Gal(b1-4)GlcNAc(b1-3)Gal(b1-4)GlcNAc
# Outline: as §1
# [7] = molecular target: Gal(b1-4)GlcNAc(b1-3)Gal(b1-4)GlcNAc(b1-2)Man(a1-3)[Gal(b1-4)GlcNAc(b1-3)Gal(b1-4)GlcNAc(b1-2)Man(a1-6)]Man(b1-4)GlcNAc(b1-4)GlcNAc
# Outline: as §1
# [8] = molecular target: Gal(b1-4)GlcNAc(b1-3)Gal(b1-4)GlcNAc(b1-2)Man(a1-3)[Gal(b1-4)GlcNAc(b1-3)Gal(b1-4)GlcNAc(b1-2)Man(a1-6)]Man(b1-4)GlcNAc(b1-4)[Fuc(a1-6)]GlcNAc
# Outline: as §1
# [9] = molecular target: Gal(b1-4)GlcNAc(b1-3)Gal(b1-4)GlcNAc(b1-2)[Gal(b1-4)GlcNAc(b1-3)Gal(b1-4)GlcNAc(b1-6)]Man(a1-6)[Gal(b1-4)GlcNAc(b1-3)Gal(b1-4)GlcNAc(b1-2)Man(a1-3)]Man(b1-4)GlcNAc(b1-4)GlcNAc
# Outline: as §1
# [10] = molecular target: Gal(b1-4)GlcNAc(b1-3)Gal(b1-4)GlcNAc(b1-2)[Gal(b1-4)GlcNAc(b1-3)Gal(b1-4)GlcNAc(b1-6)]Man(a1-6)[Gal(b1-4)GlcNAc(b1-3)Gal(b1-4)GlcNAc(b1-2)Man(a1-3)]Man(b1-4)GlcNAc(b1-4)[Fuc(a1-6)]GlcNAc
# Outline: as §1
# [11] = molecular target: Gal(b1-4)GlcNAc(b1-3)Gal(b1-4)GlcNAc(b1-3)Gal(b1-4)GlcNAc
# Outline: as §1
# [12] = molecular target: Gal(b1-4)GlcNAc(b1-3)Gal(b1-4)GlcNAc(b1-3)Gal(b1-4)GlcNAc(b1-2)Man(a1-3)[Gal(b1-4)GlcNAc(b1-3)Gal(b1-4)GlcNAc(b1-3)Gal(b1-4)GlcNAc(b1-2)Man(a1-6)]Man(b1-4)GlcNAc(b1-4)GlcNAc
# Outline: as §1
# [13] = molecular target: Gal(b1-4)GlcNAc(b1-3)Gal(b1-4)GlcNAc(b1-3)Gal(b1-4)GlcNAc(b1-2)Man(a1-3)[Gal(b1-4)GlcNAc(b1-3)Gal(b1-4)GlcNAc(b1-3)Gal(b1-4)GlcNAc(b1-2)Man(a1-6)]Man(b1-4)GlcNAc(b1-4)[Fuc(a1-6)]GlcNAc
# Outline: as §1
# [14] = molecular target: Gal(b1-4)GlcNAc(b1-3)Gal(b1-4)GlcNAc(b1-3)Gal(b1-4)GlcNAc(b1-2)[Gal(b1-4)GlcNAc(b1-3)Gal(b1-4)GlcNAc(b1-3)Gal(b1-4)GlcNAc(b1-6)]Man(a1-6)[Gal(b1-4)GlcNAc(b1-3)Gal(b1-4)GlcNAc(b1-3)Gal(b1-4)GlcNAc(b1-2)Man(a1-3)]Man(b1-4)GlcNAc(b1-4)[Fuc(a1-6)]GlcNAc
# Outline: as §1
# [15] = molecular target: Gal(b1-4)GlcNAc(b1-3)Gal(b1-4)GlcNAc(b1-3)Gal(b1-4)GlcNAc(b1-3)Gal(b1-4)GlcNAc(b1-2)Man(a1-3)[Gal(b1-4)GlcNAc(b1-3)Gal(b1-4)GlcNAc(b1-3)Gal(b1-4)GlcNAc(b1-3)Gal(b1-4)GlcNAc(b1-2)Man(a1-6)]Man(b1-4)GlcNAc(b1-4)GlcNAc
# Outline: as §1
# [16] = molecular target: Gal(b1-4)GlcNAc(b1-3)Gal(b1-4)GlcNAc(b1-3)Gal(b1-4)GlcNAc(b1-3)Gal(b1-4)GlcNAc(b1-2)Man(a1-3)[Gal(b1-4)GlcNAc(b1-3)Gal(b1-4)GlcNAc(b1-3)Gal(b1-4)GlcNAc(b1-3)Gal(b1-4)GlcNAc(b1-2)Man(a1-6)]Man(b1-4)GlcNAc(b1-4)[Fuc(a1-6)]GlcNAc
# Outline: as §1
# [17] = molecular target: Gal(b1-4)GlcNAc(b1-3)Gal(b1-4)GlcNAc(b1-3)Gal(b1-4)GlcNAc(b1-3)Gal(b1-4)GlcNAc(b1-2)[Gal(b1-4)GlcNAc(b1-3)Gal(b1-4)GlcNAc(b1-3)Gal(b1-4)GlcNAc(b1-3)Gal(b1-4)GlcNAc(b1-6)]Man(a1-6)[Gal(b1-4)GlcNAc(b1-3)Gal(b1-4)GlcNAc(b1-3)Gal(b1-4)GlcNAc(b1-3)Gal(b1-4)GlcNAc(b1-2)Man(a1-3)]Man(b1-4)GlcNAc(b1-4)[Fuc(a1-6)]GlcNAc
# Outline: as §1
# [18] = molecular target: Gal(b1-4)GlcNAc(b1-3)Gal(b1-4)GlcNAc(b1-3)Gal(b1-4)GlcNAc(b1-3)Gal(b1-4)GlcNAc(b1-3)Gal(b1-4)GlcNAc(b1-2)Man(a1-3)[Gal(b1-4)GlcNAc(b1-3)Gal(b1-4)GlcNAc(b1-3)Gal(b1-4)GlcNAc(b1-3)Gal(b1-4)GlcNAc(b1-3)Gal(b1-4)GlcNAc(b1-2)Man(a1-6)]Man(b1-4)GlcNAc(b1-4)GlcNAc
# Outline: as §1
# [19] = molecular target: Gal(b1-4)GlcNAc(b1-3)Gal(b1-4)GlcNAc(b1-3)Gal(b1-4)GlcNAc(b1-3)Gal(b1-4)GlcNAc(b1-3)Gal(b1-4)GlcNAc(b1-2)Man(a1-3)[Gal(b1-4)GlcNAc(b1-3)Gal(b1-4)GlcNAc(b1-3)Gal(b1-4)GlcNAc(b1-3)Gal(b1-4)GlcNAc(b1-3)Gal(b1-4)GlcNAc(b1-2)Man(a1-6)]Man(b1-4)GlcNAc(b1-4)[Fuc(a1-6)]GlcNAc
# Outline: as §1
# [20] = molecular target: Gal(b1-4)GlcNAc(b1-3)Gal(b1-4)GlcNAc(b1-3)Gal(b1-4)GlcNAc(b1-3)Gal(b1-4)GlcNAc(b1-3)Gal(b1-4)GlcNAc(b1-2)[Gal(b1-4)GlcNAc(b1-3)Gal(b1-4)GlcNAc(b1-3)Gal(b1-4)GlcNAc(b1-3)Gal(b1-4)GlcNAc(b1-3)Gal(b1-4)GlcNAc(b1-6)]Man(a1-6)[Gal(b1-4)GlcNAc(b1-3)Gal(b1-4)GlcNAc(b1-3)Gal(b1-4)GlcNAc(b1-3)Gal(b1-4)GlcNAc(b1-3)Gal(b1-4)GlcNAc(b1-2)Man(a1-3)]Man(b1-4)GlcNAc(b1-4)[Fuc(a1-6)]GlcNAc
# Outline: as §1
# [21] = molecular target: Gal(b1-4)GlcNAc(b1-3)Gal(b1-4)GlcNAc(b1-3)Gal(b1-4)GlcNAc(b1-3)Gal(b1-4)GlcNAc(b1-3)Gal(b1-4)GlcNAc(b1-3)Gal(b1-4)GlcNAc(b1-2)Man(a1-3)[Gal(b1-4)GlcNAc(b1-3)Gal(b1-4)GlcNAc(b1-3)Gal(b1-4)GlcNAc(b1-3)Gal(b1-4)GlcNAc(b1-3)Gal(b1-4)GlcNAc(b1-3)Gal(b1-4)GlcNAc(b1-2)Man(a1-6)]Man(b1-4)GlcNAc(b1-4)GlcNAc
# Outline: as §1
# [22] = molecular target: Gal(b1-4)GlcNAc(b1-3)Gal(b1-4)GlcNAc(b1-3)GalNAc
# Outline: as §1
# [23] = molecular target: Gal(b1-4)GlcNAc(b1-3)Gal(b1-4)GlcNAc(b1-3)[Gal(b1-4)GlcNAc(b1-3)Gal(b1-4)GlcNAc(b1-6)]GalNAc
# Outline: as §1
binder,measurement,setting,value
Arath Fbox LD (Arabidopsis thaliana) (protein) EFSVWLEKASGKRCLMLSAMNLSIIWGDNPQYWQWIPIPESRFEKVAKLRDVCWFEIRGRTNTRVLSPRTRYSAYIVFKGVDKCYGFQNVAIEAAVGVVGQEPSRRLICFSEAIRRGRRNVVKPKQREDGWMEIELGEFFNDGGIMDNDEIEMSALETKQLNRKCGLIIQGIEIRPAKILAAASFLEQKLISEEDLNSAVDHHHHHH,glycan array binding signal (z-score),[1],0.488
same,glycan array binding signal (z-score),[2],0.077
same,glycan array binding signal (z-score),[3],0.006
same,glycan array binding signal (z-score),[4],-0.488
same,glycan array binding signal (z-score),[5],0.088
same,glycan array binding signal (z-score),[6],-0.405
same,glycan array binding signal (z-score),[7],0.039
same,glycan array binding signal (z-score),[8],-0.519
same,glycan array binding signal (z-score),[9],1.59
same,glycan array binding signal (z-score),[10],-0.085
same,glycan array binding signal (z-score),[11],0.403
same,glycan array binding signal (z-score),[12],0.028
same,glycan array binding signal (z-score),[13],-0.363
same,glycan array binding signal (z-score),[14],0.105
same,glycan array binding signal (z-score),[15],-0.324
same,glycan array binding signal (z-score),[16],-0.558
same,glycan array binding signal (z-score),[17],-0.089
same,glycan array binding signal (z-score),[18],-0.532
same,glycan array binding signal (z-score),[19],-0.468
same,glycan array binding signal (z-score),[20],0.086
same,glycan array binding signal (z-score),[21],-0.201
same,glycan array binding signal (z-score),[22],-0.395
same,glycan array binding signal (z-score),[23],-0.532
